Here are results for 58 compounds from the supplement of paper PMC4723716.

In all, about 3,600 compounds were measured (“viability index relative to DMSO control”: median about 0.81, lowest 2% from about 0.13 on). Some of the results follow.
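Also: 384-well serum-free SaLSSA: MitoTracker Red CMXRos staining with saponin lysis, high-content imaging, treated-well particle count divided by plate-mean count of DMSO wells.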

The test system of the assay is Plasmodium falciparum NF54 stage V gametocytes. Description: viability index relative to DMSO control (fraction); higher = less gametocyte killing. The conditions noted are these: 1.25 µM, incubation time: 72 h.
`CCCOC(=O)C1=C(C)NC2=C(C(=O)CC(c3ccc(OC)c(OC)c3)C2)C1c1ccccc1Cl` (stereo not drawn) returned a viability index of 0.317.

`Clc1ccc(-c2c[n+](CCc3ccccc3)c3n2CCC3)cc1` came in with a viability index of 0.785.

In turn, `CC(=O)N(C)C1=C(N2CCCC2)C(=O)c2ccccc2C1=O` had a viability index of 0.865.

In turn, `O=C(C1=C(O)C(=O)N(CCCn2ccnc2)C1c1ccccc1[N+](=O)[O-])c1ccccc1` (stereo not drawn) returned a viability index of 0.638.

`Cc1cccc(-c2nc3cc(NC(=O)c4ccc([N+](=O)[O-])o4)ccc3o2)c1` showed a viability index of 0.0679.

The compound `CN1C(=Cc2cccc[n+]2C)C=Cc2ccccc21` had a viability index of 0.902.

`CCN(Cc1ccccc1)Cc1c(O)ccc2oc(C)c(C(=O)Nc3ccc(C)cc3C)c12` registered a viability index of 1.13.

For `COc1ccc(N2CCN(C(CNC(=O)CC(C)C)c3ccco3)CC2)cc1` (stereo not drawn), the viability index amounted to 0.612.

With `COc1ccc(-n2c(COc3cccc4ccccc34)nnc2SC)cc1`, the viability index stood at 0.724.

On to `COc1ccccc1-n1c(=O)c2c3c(sc2n2c(C)nnc12)CCC3`, for which the viability index was 0.865.

`COc1ccc(OC)c(C=NNC(=O)Cc2cc(O)[nH]n2)c1` displayed a viability index of 0.834.

`c1ccc(CSc2nnc3c(n2)[nH]c2ccccc23)cc1` displayed a viability index of 0.865.

As for `c1cc(-c2cccc3cccnc23)nc(N2CCN(CCN3CCCC3)CC2)c1`, the viability index is 0.899.

Compound `Fc1ccc(-c2c[n+](Cc3ccc(Cl)cc3)c3n2CCC3)cc1` displayed a viability index of 0.933.

For `COc1ccccc1NC1=CC(=NS(=O)(=O)c2ccc(F)cc2)c2ccccc2C1=O`, the viability index was 0.189.

`CC(=O)c1c(C)oc2ccc(NS(=O)(=O)c3cccc(C(=O)O)c3)cc12`: the viability index was 0.985.

The compound `CC(C=NNC(N)=S)=NNC(N)=S` registered a viability index of 0.131.

As to `Cc1ccc(C2(C)CC(C)(C)N(C(=O)Cc3ccccc3)c3ccc(C(c4ccccc4)(c4ccccc4)c4ccccc4)cc32)cc1` (stereo not drawn), the viability index is 0.853.

In turn, `N=C1NC(=O)C(=CC=Cc2ccc([N+](=O)[O-])o2)S1` returned a viability index of 0.0408.

Compound `CCOc1cc(C2C(C(=O)OC)=CNC=C2C(=O)OC)cc(Br)c1OCC` returned a viability index of 0.629.

In turn, `Cc1ccc2nc(Nc3ncc4c(n3)CC(C)(C)CC4=O)nc(C)c2c1` registered a viability index of 0.992.

The compound `C[n+]1c(C=Cc2ccc(F)cc2)ccc2ccccc21` returned a viability index of 0.733.

The compound `N#Cc1c2c(c(N3CCN(Cc4ccccc4)CC3)n3c1nc1ccccc13)CCC2` showed a viability index of 1.03.

As to `CCCCc1ccc(NC(C)=O)cc1`, the viability index came to 0.497.

For `CCc1ccc(C(=O)C[n+]2cc(-c3ccc(OC)cc3)n3c2CCC3)cc1`, the viability index turned out to be 0.892.

With `CCOC(=O)N1CCN(C(=O)c2ccc(N3CC4CC(C3)c3cccc(=O)n3C4)c(NS(=O)(=O)c3ccc4c(c3)OCCO4)c2)CC1` (stereo not drawn), the viability index turned out to be 0.959.

The compound `CC1=C(C(=O)OC2CCCC2)C(c2ccc(Cl)cc2)C2=C(CC(c3ccc(Cl)cc3)CC2=O)N1` (stereo not drawn) returned a viability index of 0.675.

`COc1ccc2cc3[n+](cc2c1OC)CCc1cc2c(cc1-3)OCO2` yielded a viability index of 0.822.

Consider `COC(=O)c1cccc(NC(=O)C(=Cc2cccc([N+](=O)[O-])c2)NC(=O)c2ccccc2OC)c1`, for which the viability index was determined as 0.936.

Compound `CCOC(=O)C1=C(C)NC2=C(C(=O)CC(c3ccc(OC)c(OC)c3)C2)C1c1cccc(Cl)c1` (stereo not drawn) came in with a viability index of 0.71.

In the case of `COc1ccc(CN2CCOc3ccc(C(C)(O)CN(C)C)cc3C2)cc1C` (stereo not drawn), the viability index is 1.

On to `O=C1C=C(Nc2cccc(C(F)(F)F)c2)C(=O)c2ccccc21`, for which the viability index came to 0.0673.

Regarding `CCC(=Cc1sc2ccc3ccccc3c2[n+]1C)C=C1Sc2ccc3ccccc3c2N1C`, the viability index is 0.681.

`Fc1ccc(Nc2nc(NCc3ccco3)c3ccccc3n2)cc1`: the viability index came out at 0.739.

`CCOC(=O)c1c(NC(=O)C(C)Sc2ncnc3c2oc2ccccc23)sc2c1CCC2` (stereo not drawn) yielded a viability index of 0.678.

For the compound `COc1ccc(-c2c[n+](CC(=O)c3cccc(OC)c3)c3n2CCC3)cc1`, the viability index was 0.74.

Compound `N=c1c2c(n(CCc3ccccc3)c3c1CCC3)CCCC2` registered a viability index of 0.785.

Regarding `Cc1ccc(C(=O)c2c(C)oc3ccc(O)cc23)cc1`, the viability index was found to be 0.849.

For `CCN(CC)CCCNC(=S)N(CCN(C)C)Cc1cc2cc(C)cc(C)c2[nH]c1=O`, the viability index turned out to be 0.763.

Compound `CCc1ccc(Nc2cc(C)nc3nc(C)nn23)cc1` gave a viability index of 1.18.

The compound `COC(=O)c1ccc(C2C3=C(O)CC(c4cccs4)CC3=Nc3ccccc3N2C(=O)c2ccccc2)cc1` (stereo not drawn) had a viability index of 0.571.

Take `CCOc1ccc(Br)cc1C=C1SC(=Nc2ccccc2CC)N(c2ccccc2CC)C1=O`: the viability index was 0.712.

For `COc1cccc(C(Nc2cc(C)ccn2)c2ccc3cccnc3c2O)c1` (stereo not drawn), the viability index turned out to be 0.88.

As for `CC(=O)Nc1ccc(C(=O)N2CCC(Oc3cccc(CN(C)Cc4cccc5ccccc45)c3)CC2)cc1`, the viability index worked out at 1.12.

Turning to `Cc1ccc(CC(=O)Nc2ccc(I)cc2)cc1`, the viability index was 1.41.

`O=C(C1CCC1)N1CCN(c2ccccn2)CC1` returned a viability index of 0.891.

`COC(=O)C1=C(C)NC2=C(C(=O)CC(c3ccc(OC)c(OC)c3)C2)C1c1ccc([N+](=O)[O-])cc1` (stereo not drawn) returned a viability index of 0.56.

Turning to `Cc1ccccc1N1C(=O)C2C3c4ccccc4C(C(=O)O)(c4ccccc43)C2C1=O` (stereo not drawn), the viability index worked out at 0.616.

`NCCNc1cc(-c2ccccc2)nc2ccccc12` yielded a viability index of 1.12.

Consider `O=C1NC(=Nc2ccccc2)C(=Cc2ccc(O)cc2)S1`, for which the viability index was 0.455.

For the compound `Nc1ccc(C(=O)Nc2ccc(-c3nc4ccccc4o3)cc2)cc1`, the viability index is 0.703.

Take `C=CCC1C=C(Cc2ccccc2)CC(CC=C)N1` (stereo not drawn): the viability index worked out at 1.02.

With `Oc1ccc(Br)cc1CN1CCN(c2ccccn2)CC1`, the viability index came out at 0.908.

The compound `CCOC(=O)C1(CC2CCCCO2)CCN(C(=O)Nc2cccc(SC)c2)CC1` (stereo not drawn) had a viability index of 1.07.

As to `Cc1cc(N2CCC(C)CC2)nc(-n2nc(C)cc2C)n1`, the viability index stood at 0.

In turn, `Cc1ccc(S(=O)(=O)N2CCN(C(=O)c3ccccc3)C2c2ccccc2)cc1` (stereo not drawn) registered a viability index of 0.875.

`CCOC(=O)c1[nH]c2ccc(OC)cc2c1N=NN(C)C` returned a viability index of 0.627.

As for `CCc1c(C#N)c(N)nc2sc(C(=O)c3ccc(Br)cc3)c(N)c12`, the viability index was 0.661.
